# Data: the supplement of paper PMC12217912
# This is one part of the list. The full chains were built here from the parent and the listed change. Values near 0.05 are background.
# B1: TEV protease; numbered along this chain (parent)
# chain: MGESLFKGPRDYNPISSSICHLTNESDGHTTSLYGIGFGPFIITNKHLFRRNNGTLVVQSLHGVFKVKDTTTLQQHLVDGRDMIIIRMPKDFPPFPQKLKFREPQREERICLVTTNFQTKSMSSMVSDTSCTFPSGDGIFWKHWIQTKDGQCGSPLVSTRDGFIVGIHSASNFTNTNNYFTSVPKNFMELLTNQEAQQWVSGWRLNADSVLWGGHKVFMVKPEEPFQPVKEATQL
# Variants of: B1
# Assay: raw area under fraction-flipped curve 0-4 h after induction (AUC4h, not background-subtracted), DNA-recorder readout of cleavage of the substrate (dimensionless); higher = more cleavage of the substrate by the protease variant
# Settings: temperature: 34 °C; time window: 0-4 h after rhamnose induction
# 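Also: Bxb1 expression induced with 0.2% (w/v) L-rhamnose at OD600 near 0.5, cultures sampled hourly, flipped fraction per protease–substrate barcode pair counted by paired-end Illumina sequencing.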
Variant,area with substrate ENDYFQS,area with substrate ENIYFQS,area with substrate ENKYFQS,area with substrate ENPYFQS,area with substrate ENQYFQS,area with substrate ENSYFQS,area with substrate ENYYFQS,area with substrate ENMYFQS,area with substrate ENNYFQS,area with substrate ENVYFQS
D91R,0.0446,0.139,0.0658,0.0653,0.066,0.0599,0.0508,–,–,–
Q146F,0.043,0.116,–,–,0.0366,0.0646,–,0.0972,0.0633,0.0852
V157Q,–,0.1,0.0713,0.0512,0.0493,0.0478,–,0.0935,–,0.0741
K142A,0.0282,–,–,0.0684,0.0556,–,–,–,0.0388,0.0034
G2C,–,–,–,–,–,0.05,–,–,–,–
R106M,–,–,–,–,0.0592,0.0614,0.0625,0.177,0.0645,0.0371
G8Y,–,–,0.0546,–,–,–,–,–,–,–
F180K,0.0842,0.0599,–,–,0.0489,–,–,0.0541,0.0585,0.051
F180M,0.0613,–,0.043,–,0.0566,–,0.034,–,0.067,0.0789
F101R,0.0502,–,–,–,0.0485,0.0596,0.0663,–,–,0.0731
Q105P,0.0459,–,–,–,0.0443,0.0451,–,0.0525,0.0639,0.0458
P222K,0.0468,–,–,–,0.0646,0.0543,0.0122,0.0683,–,–
M122R,0.0596,0.142,–,–,–,–,0.0657,–,–,0.0952
M125I,–,–,–,–,0.0532,0.0518,–,0.0401,0.0552,–
T159N,–,–,–,–,0.0553,0.0919,–,0.0859,0.0569,–
L205I,0.0598,–,–,–,–,0.068,0.0617,–,–,–
E103R,0.0565,0.0839,0.0603,0.0557,0.0675,0.0623,–,–,–,–
K185H,–,–,–,0.0727,0.0578,0.0683,–,–,–,–
F6P,–,–,–,–,0.0502,–,–,–,–,0.0785
S171A,–,–,–,–,–,0.0601,–,–,–,–
E108F,0.0555,–,–,–,0.0507,0.0559,0.0594,–,0.0457,0.0755

Variant,area with substrate ENDYFQS,area with substrate ENIYFQS,area with substrate ENKYFQS,area with substrate ENPYFQS,area with substrate ENQYFQS,area with substrate ENSYFQS,area with substrate ENYYFQS,area with substrate ENMYFQS,area with substrate ENNYFQS,area with substrate ENVYFQS
E223V,–,–,–,–,0.0587,0.0525,–,–,0.0436,0.0955
S154T,–,0.112,–,–,0.0628,0.0652,–,0.0853,–,0.0824
T174W,0.0507,–,0.0647,0.0533,0.0588,0.0749,–,0.0678,0.0593,–
V58H,–,–,–,–,0.0319,0.0455,0.0412,–,–,–
L73K,–,–,–,–,0.0604,0.0418,–,0.0492,–,–
L73N,0.0552,0.0463,0.039,–,0.0598,–,0.0622,0.0495,0.0502,–
M219N,0.049,–,0.0671,0.0838,0.051,0.0675,–,–,–,–
F226T,–,–,0.0355,0.0512,–,–,–,–,–,0.0828
L5V,–,–,–,0.0697,0.0648,0.0629,–,–,–,–
Y34A,–,–,0.0506,–,0.0647,0.0656,–,0.0563,0.0623,0.0454
Q197T,–,–,–,–,0.0583,0.0369,–,0.0908,0.0536,–
Q197A,0.0805,–,–,–,0.0589,0.0637,–,–,–,0.065
S158F,0.0631,–,0.0637,–,0.0502,0.0769,–,–,–,–
S124L,0.0534,0.105,–,0.0395,0.0601,–,0.0612,–,–,0.079
P94F,–,–,0.0674,–,0.0568,0.0568,–,–,0.0611,0.0707
N206Y,0.0612,0.0754,0.053,–,0.0824,–,–,–,0.0527,0.0665
V67Y,–,–,–,0.053,0.0576,0.0611,–,–,–,–
T71K,–,0.114,–,–,–,0.0397,0.0667,–,0.0873,0.0463
T71R,–,–,0.0623,0.0615,0.0742,0.0645,0.0517,–,0.0572,–
C111G,0.0328,–,0.0717,0.0576,0.0522,0.0528,–,–,0.061,0.0839

# Same assay, conditions: temperature: 34 °C; time window: 0-4 h after rhamnose induction
Variant,area with substrate ENEYFQS,area with substrate ENFYFQS,area with substrate ENGYFQS,area with substrate ENHYFQS,area with substrate ENTYFQS,area with substrate ENRYFQS,area with substrate ENWYFQS
V157Q,0.0662,0.0629,0.0598,0.073,0.0476,–,–
K142A,–,0.0492,–,0.0672,–,0.0616,0.0097
G2C,–,–,–,–,0.0603,–,–
R106M,0.0524,0.0618,0.0706,0.0538,0.17,–,–
G8Y,0.0774,–,–,–,–,–,–
F180K,0.0394,–,0.0658,–,0.0574,–,–
F180M,–,–,–,–,0.0383,0.005,–
F101R,0.0472,–,0.0439,–,0.0587,–,0.0729
Q105P,0.0502,–,0.0419,0.0606,0.0293,–,0.0541
P222K,0.057,–,–,–,0.0428,0.05,–
M122R,–,0.0527,0.0517,–,0.0598,0.052,0.0448
M125I,–,–,–,0.055,–,0.0743,–
T159N,0.0381,0.0588,0.0553,–,–,–,–
L205T,–,0.0377,–,–,–,–,–
L205I,0.0696,–,0.0566,–,–,–,–
E103R,0.0394,0.0538,0.0728,0.0681,0.0642,0.0636,–
K185H,0.0609,0.0627,0.0722,–,0.0452,–,0.0626
F6P,0.0464,–,–,–,–,–,0.0475
S171A,–,–,–,0.0624,–,–,–
E108F,0.0599,–,–,0.0589,0.0567,0.0596,–

Variant,area with substrate ENEYFQS,area with substrate ENFYFQS,area with substrate ENGYFQS,area with substrate ENHYFQS,area with substrate ENTYFQS,area with substrate ENRYFQS,area with substrate ENWYFQS
E223V,0.0642,–,–,–,0.0553,0.0578,–
S154T,0.0465,0.0518,0.0548,–,0.0534,–,0.0053
T174W,0.0713,0.0563,0.0655,0.0647,0.0522,–,–
L73K,0.0312,–,–,–,0.0473,–,0.0423
L73N,0.0479,–,–,0.0718,0.0556,0.0467,–
M219N,0.0653,–,0.041,–,0.0448,–,–
F226T,0.0541,–,–,0.0642,–,–,0.0609
L5V,0.0542,0.0682,–,–,0.0569,0.0607,–
Y34A,–,0.0539,0.0661,0.053,–,–,0.0469
Q197T,0.0532,0.0551,0.0621,–,–,–,–
Q197A,0.0531,0.0355,–,0.0597,–,–,–
S158F,0.0518,–,–,–,–,0.0558,0.041
S124L,0.0631,–,0.0644,–,–,0.0531,0.0648
P94F,0.0811,0.0387,0.0668,0.062,0.0628,–,–
N206Y,0.0633,0.0562,0.0633,–,0.0575,–,–
V67Y,–,0.0739,0.0631,0.053,–,0.0532,0.0486
T71K,0.0501,–,0.071,0.0596,–,–,–
T71R,0.0579,–,0.0317,0.0512,0.0649,–,–
C111G,0.0719,0.0543,0.0628,–,–,–,0.0584
